Test results as given in PubChem BioAssay AID1240 (Sanford-Burnham Center for Chemical Genomics, 2008).
Hit rate of the full screen: of about 50,000 compounds, about 800 (1.6%) showed an effect of 50% or more. This is one part of the list.

Molecular target: Bcl-2-like protein 10 (Homo sapiens) (UniProt Q9HD36)
Experiment: TR3 peptide-Bcl-B binding displacers, biochemical primary FP assay, phenotype converters (AID 1240);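 further: 0% = Bcl-B with tracer peptide and DMSO and 100% = tracer peptide lacking Bcl-B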
Conditions: GST-Bcl-B / FITC-TR3 peptide fluorescence polarization; stronger effect = higher value; compound at 3.75 mg/L

Chain of UniProt Q9HD36 (Q9HD36 whole entry, looked up): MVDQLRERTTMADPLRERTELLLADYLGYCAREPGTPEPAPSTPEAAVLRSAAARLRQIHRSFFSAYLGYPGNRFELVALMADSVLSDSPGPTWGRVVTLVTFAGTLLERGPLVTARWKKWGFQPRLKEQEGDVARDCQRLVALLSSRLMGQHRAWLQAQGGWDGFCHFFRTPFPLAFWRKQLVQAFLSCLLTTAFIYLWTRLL

Compound | displacement
C#CCOc1ccc(/C=C2\C(=O)NC(=O)N(c3cc(C)cc(C)c3)C2=O)cc1 | -94.3%
O=C(Oc1ccc(Cl)cc1)c1ccccc1 | 14.6%
C=CCN1C(=O)/C(=C\c2ccc(C=O)cc2)SC1=S | 9.6%
CCCOC(=O)c1c(NC(=O)c2c(-c3ccccc3)noc2C)sc2c1CCCCC2 | -7.2%
O=C1c2ccccc2C(=O)N1/N=C/c1ccc(Cl)c([N+](=O)[O-])c1 | -2.3%
CCOC(=O)C1Cn2c(nc3c(c2=O)C(C)(C)Cc2ccccc2-3)S1 (stereo not drawn) | -5.9%
CC(C)(C)N=CC(C=NC(C)(C)C)[N+](=O)[O-] (stereo not drawn) | -12.2%
C#CC(C)(C)NC(=O)CN(c1cc(C)ccc1C)S(=O)(=O)c1ccccc1 | 2.6%
O=C(/C=C/c1ccc(-c2ccc(Cl)cc2Cl)o1)c1ccco1 | 3.4%
COc1ccc(NC(=O)CN(c2cccc(C(F)(F)F)c2)S(C)(=O)=O)cc1 | -5.1%
CC1(CC2C(CC(N)=O)C2(C)C)OCCO1 (stereo not drawn) | 13.4%
O=C(Nc1cccc(F)c1)/C(=C/c1cccnc1)NC(=O)c1cccc(Br)c1 | 0.3%
CCOc1ccc(C(=O)Nc2ccc(Cl)c(-c3nc4ccccc4[nH]3)c2)cc1Cl | -13.1%
CC1CCN(c2ccc(NC(=O)c3ccc(Cl)cc3)cc2)CC1 | 5.2%
C=CCNC(=O)CN(c1ccc(OC)cc1)S(=O)(=O)c1ccc(C)cc1 | 5.1%
Cc1c(N2C(=O)CS/C2=N\N=C\c2ccc(Cl)cc2)c(=O)n(-c2ccccc2)n1C | -7.8%
COc1ccc(/C=C2\SC(=S)N(CCCCCC(=O)N3CCN(C)CC3)C2=O)cc1 | 9.1%
COc1cc(OC)cc(C(=O)Nc2ccc(I)cc2Cl)c1 | -0.6%
COc1cc(/C=C2\SC(=Nc3cccc(Cl)c3C)NC2=O)cc(OC)c1OC | 43.6%
Cc1cc(NC(=O)CN2CCOCC2)c2ccccc2n1 | -1.9%
Cc1cc(=O)[nH]c(SCC(=O)Nc2ccc(F)cc2)n1 | -8%
CC(=O)Nc1ccccc1NC(=O)c1ccc(I)cc1 | 19.6%
CC(C)COc1ccc(C(=O)Nc2cccc3ccccc23)cc1 | 10.5%

Compound | displacement
CC(=O)Nc1ccc(S(=O)(=O)Nn2cnnc2)cc1 | -0.9%
Cc1ccc(N2C(=O)CC(N3CCN(c4ccc(Cl)cc4)CC3)C2=O)c(C)c1 (stereo not drawn) | 10.8%
O=C(CCCSc1nc2sc3c(c2c(=O)[nH]1)CCCC3)NCCCO | -1.9%
CC(Nc1n[nH]c(=O)[nH]c1=O)C(=O)N/N=C/c1ccc(Cl)cc1 (stereo not drawn) | -9.3%
Cc1ccc(-c2cc(C(=O)NC(C)C)c3ccccc3n2)c(C)c1 | -4%
Cc1ccc2c(C)nc(Nc3nc4ccccc4c(=O)[nH]3)nc2c1 | 11.9%
CCOC(=O)c1c(C)oc2cc(Br)c(OCC(=O)OCc3ccccc3)cc12 | 10.8%
COC(=O)NC1(C(Cl)Cl)N=C(c2ccccc2)N=C1N (stereo not drawn) | 11.9%
CCN1C(=O)/C(=C\c2cccc(C)c2)SC1=S | 17.4%
CC(NC(=O)Nc1ccc(Cl)c(Cl)c1)C1CC2CCC1C2 (stereo not drawn) | -5.1%
Cc1c(OCc2c(F)cccc2Cl)ccc2c3c(c(=O)oc12)CCC3 | 9.5%
C(=N\N1CCN(Cc2cccc3ccccc23)CC1)/c1ccccn1 | -3.8%
CCCN(CCC)CN1C(=O)S/C(=C/c2ccc(SC)cc2)C1=O | -1.7%
Cc1ccc(C(=O)O)cc1N1C(=O)c2ccc(C(=O)c3cccc([N+](=O)[O-])c3)cc2C1=O | 14%
Nc1cc(-c2cccc(Br)c2)nn1Cc1ccc(Cl)cc1 | 5%
CCOCCOC(=O)c1ccc(NC(=O)c2ccco2)cc1 | 15.9%
Cc1ccc(OCCn2c(=S)[nH]c3ccccc32)cc1 | -1.1%
O=C(Nc1cccnc1)c1ccc(CN(c2ccccc2)S(=O)(=O)c2ccccc2)cc1 | -8.7%
O=C(COc1ccc(Cl)cc1Cl)NNc1nc(N2CCOCC2)nc(N2CCOCC2)n1 | 2%
Oc1ccc(NC(=S)Nc2ccccc2)cc1 | 4.1%
O=C1C=C/C(=N\S(=O)(=O)c2ccc(Cl)cc2)C=C1Cl | 21.1%
Cc1cc(C)cc(N2C(=O)NC(=O)/C(=C\c3ccc([N+](=O)[O-])o3)C2=O)c1 | -3.8%
CC(Oc1cccc(Cl)c1)C(=O)Nc1cc([N+](=O)[O-])ccc1Cl (stereo not drawn) | -3.1%

Compound | displacement
CCOC(=O)COc1nc2ccc(Cl)cc2c(-c2ccccc2)c1C(C)=O | 4.7%
O=S(=O)(NC1CCCCCCC1)c1ccc(F)cc1 | -3.4%
CCOc1cccc(C2NC(=O)NC(C)=C2C(=O)OCc2ccc(OC)cc2)c1 (stereo not drawn) | 12.3%
COc1ccc(C(=O)NC23CC4CC(CC(C4)C2)C3)cc1OC | 5.2%
COc1ccc(/C=C(/C#N)c2nc(-c3ccc(Br)cc3)cs2)cc1OC | 101%
COc1ccc(C(NC(=O)C(c2ccccc2)c2ccccc2)NC(=O)C(c2ccccc2)c2ccccc2)cc1OC | 9.7%
CCOc1cc(C2C(C(=O)OC)=C(C)N(C)C(C)=C2C(=O)OC)ccc1OC(C)=O | 10.7%
Brc1ccc2ncnc(Nc3ccc4c(c3)OCCO4)c2c1 | 3.7%
CNc1ccc([N+](=O)[O-])cc1N/C=C1\CCc2ccccc2C1=O | 126%
COCCN1C(=O)C(=O)/C(=C(/O)c2ccccc2)C1c1ccc2c(c1)OCO2 (stereo not drawn) | 0.6%
O=C1NC(=O)C2C1C1(c3ccccc3)C(=O)C2(c2ccccc2)C(c2ccccc2)=C1c1ccccc1 (stereo not drawn) | 0.7%
NC(=O)CN(c1cccc([N+](=O)[O-])c1)S(=O)(=O)c1ccccc1 | -2.3%
Cc1c(Cc2ccccc2)c(NCCN(C)C)n2c(nc3ccccc32)c1C#N | -0.3%
CC1=CC(C)(C)Nc2ccc(OC(=O)C3CCCO3)cc21 (stereo not drawn) | 16.2%
CC(=O)c1ccc(Oc2ccc(C(C)=O)cc2)cc1 | -0.2%
COc1cc([N+](=O)[O-])ccc1NC(=O)/C=C\c1ccc(Cl)cc1 | -1.8%
COc1ccccc1-n1c(CN2C(=O)c3ccccc3C2=O)nc2ccccc2c1=O | 1.9%
COc1ccc(OCCNc2cc(N3CCN(CCO)CC3)ccc2[N+](=O)[O-])cc1 | 3%
COc1ccc(/C=C/C(=O)OCc2ccc([N+](=O)[O-])cc2)cc1S(=O)(=O)N1CCCCC1 | -10%
Cc1ccc(S(=O)(=O)N(Cc2ccccc2)Cc2ccccc2)cc1 | 15.9%
Cc1c(Br)c([N+](=O)[O-])nn1CC(=O)NCc1cccs1 | 12.2%
Cc1c(-c2ccc(F)cc2)[n+](=O)c2c(n1[O-])CCC2 | -7.2%
